Structures are written as SMILES. Counter-ions that a name gives are not always drawn. This is one part of the list. The data scatter; read single values as rough.
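Note: High-content imaging of ALDEFLUOR-stained cells with Hoechst-labelled nuclei in 384-well plates, triplicate wells, scored as Z-score against 0.1% DMSO vehicle, negative meaning fewer ALDHbr cells.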

In this assay the test system is MKN45. The experiment in a line: ALDHbr (CSC) cell proportion score relative to DMSO vehicle (ratio to DMSO); breast (SUM159) / gastric (MKN45) / pancreatic (PANC1) / colon cancer lines; ALDHbr cells have high ALDH activity and are rich in cancer stem cells (CSC); higher = more CSC (ALDHbr) cells remaining. The note with it: 10 µM; 72 h.
For `C[C@]12CC[C@@H]3c4ccc(O)cc4CC[C@H]3[C@@H]1C[C@@H](O)[C@@H]2O` [Estriol], the ALDHbr was determined as 1.06.
The value for `CC(=O)c1ccc(S(=O)(=O)NC(=O)NC2CCCCC2)cc1` [Acetohexamide] was 0.886; that for `CC(=O)c1ccc2c(c1)N(CCCN1CCC(CCO)CC1)c1ccccc1S2` [Piperacetazine] was 1.02.
As to `CC(=O)CC(c1ccc([N+](=O)[O-])cc1)c1c(O)c2ccccc2oc1=O` (centres undefined) [Acenocoumarol], the ALDHbr worked out at 0.962.
The value for `CCCC(=O)Nc1ccc(OCC(O)CNC(C)C)c(C(C)=O)c1` (centres undefined) [Acebutolol hydrochloride] was 0.97; that for `CCC1(C)CC(=O)NC1=O` (centres undefined) [Ethosuximide] was 1.06.
The value for `O=S(=O)(O)c1cc(O)ccc1O` [Ethamsylate] was 1.03; that for `NC(=O)OCC(O)COc1ccc(Cl)cc1` (centres undefined) [Chlorphensin carbamate] was 1.31.
The value for `Nc1nc(N)c2nc(-c3ccccc3)c(N)nc2n1` [Triamterene] was 0.2; that for `Cc1c(F)c(N2CCNC(C)C2)cc2c1c(=O)c(C(=O)O)cn2C1CC1` (centres undefined) [Grepafloxacin] was 1.06; that for `CCN1CCCC1CNC(=O)c1cc(S(=O)(=O)CC)c(N)cc1OC` (centres undefined) [Amisulpride] was 1.04.
For `O=C(O)c1cc(=O)c2c(OCC(O)COc3cccc4oc(C(=O)O)cc(=O)c34)cccc2o1` [Cromolyn disodium salt], the ALDHbr amounted to 0.796.
For the compound `COc1ccc(-c2cc(=O)c3c(O)cc(O[C@@H]4O[C@H](CO[C@@H]5O[C@@H](C)[C@H](O)[C@@H](O)[C@H]5O)[C@@H](O)[C@H](O)[C@H]4O)cc3o2)cc1O` [Diosmin], the ALDHbr was found to be 1.1.
The value for `CC(=O)Nc1c(I)c(C(=O)N[C@H]2C(O)O[C@H](CO)[C@@H](O)[C@@H]2O)c(I)c(N(C)C(C)=O)c1I` (some centres undefined) [Metrizamide] was 1.11.
Take `C#CCN(C)Cc1ccccc1` [Pargyline hydrochloride]: the ALDHbr came out at 0.967.
`CN(C)CCc1c[nH]c2ccc(Cn3cncn3)cc12` [Rizatriptan benzoate]: the ALDHbr worked out at 1.22.
The value for `CC(=O)Nc1nnc(S(N)(=O)=O)s1` [Acetazolamide] was 0.921; that for `O=C1CCc2ccc(OCCCCN3CCN(c4cccc(Cl)c4Cl)CC3)cc2N1` [Aripiprazole] was 0.621.
`CCCCCOC(=O)Nc1nc(=O)n([C@@H]2O[C@H](C)[C@@H](O)[C@H]2O)cc1F` [Capecitabine]: the ALDHbr was 1.18.
Turning to `Brc1c(NC2=NCCN2)ccc2nccnc12` [Brimonidine L-Tartrate], the ALDHbr was found to be 1.02.
The value for `CN(C)CCC=C1c2ccccc2C=Cc2ccccc21` [Cyclobenzaprine hydrochloride] was 0.964; that for `Nc1ccc(S(=O)(=O)c2ccc(N)cc2)cc1` [Dapsone] was 0.804; that for `Cc1cn([C@H]2C=C[C@@H](CO)O2)c(=O)[nH]c1=O` [Stavudine] was 0.921.
`C[C@]12C[C@H](O)[C@H]3[C@@H](CCC4=CC(=O)CC[C@@]43C)[C@@H]1CC[C@@H]2C(=O)CO` [Corticosterone]: the ALDHbr is 0.992.
Take `OC(CCN1CCCCC1)(c1ccccc1)C1CC2C=CC1C2` (centres undefined) [Biperiden hydrochloride]: the ALDHbr turned out to be 1.09.
The value for `CCCCCCCCNC(C)C(O)c1ccc(SC(C)C)cc1` (centres undefined) [Suloctidil] was 1.01; that for `CN1CCN(C2=Nc3cc(Cl)ccc3Nc3ccccc32)CC1` [Clozapine] was 1.17.
The value for `Cc1cc(-c2ccccc2)nnc1NCCN1CCOCC1` [Minaprine dihydrochloride] was 1.04.
Turning to `CN(C)CCC=C1c2ccccc2CCc2ccccc21` [Amitryptiline hydrochloride], the ALDHbr worked out at 1.17.
The value for `NS(=O)(=O)c1cc(C(=O)O)c(NCc2ccco2)cc1Cl` [Furosemide] was 1.08; that for `CN(C)CCOc1ccc(/C(=C(/CCCl)c2ccccc2)c2ccccc2)cc1` [Toremifene] was 0.654; that for `Cc1nc2n(c(=O)c1CCN1CCC(c3noc4cc(F)ccc34)CC1)CCCC2O` (centres undefined) [Paliperidone] was 0.948.
The value for `Nc1nc2c(ncn2COC(CO)CO)c(=O)[nH]1` [Ganciclovir] was 1.03; that for `O=C(O)c1cn(C2CC2)c2cc(N3CCNCC3)c(F)cc2c1=O` [Ciprofloxacin hydrochloride monohydrate] was 0.868; that for `Cc1noc(NS(=O)(=O)c2ccc(N)cc2)c1C` [Sulfisoxazole] was 0.986.
The value for `CC[N+](CC)(CC)CCC(O)(c1ccccc1)C1CCCCC1` (centres undefined) [Tridihexethyl chloride] was 1.09; that for `CCSc1ccc2c(c1)N(CCCN1CCN(C)CC1)c1ccccc1S2` [Thiethylperazine dimalate] was 0.652; that for `N[C@@H]1CCCCN(c2c(F)cc3c(=O)c(C(=O)O)cn(C4CC4)c3c2Cl)C1` [Besifloxacin hydrochloride] was 1.25.
Consider `Nc1ccccc1S(N)(=O)=O` [2-Aminobenzenesulfonamide], for which the ALDHbr is 1.01.

These data come from the supplement of paper PMC11880418.
